# Among all 310,000 compounds or so, about 14,000 (4.5%) showed an effect of 50% or more. Effects have a minus sign here. Some of the results follow.
# Target: human ether-à-go-go-related gene (hERG) potassium channel (human, UniProt Q12809)
# Test: primary screen, population patch clamp on CHO cells stably expressing hERG
# 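Note: peak tail current of the secondary pulse compared with the same well before compound.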
# human ether-à-go-go-related gene (hERG) potassium channel, sequence (Q12809 whole entry, looked up): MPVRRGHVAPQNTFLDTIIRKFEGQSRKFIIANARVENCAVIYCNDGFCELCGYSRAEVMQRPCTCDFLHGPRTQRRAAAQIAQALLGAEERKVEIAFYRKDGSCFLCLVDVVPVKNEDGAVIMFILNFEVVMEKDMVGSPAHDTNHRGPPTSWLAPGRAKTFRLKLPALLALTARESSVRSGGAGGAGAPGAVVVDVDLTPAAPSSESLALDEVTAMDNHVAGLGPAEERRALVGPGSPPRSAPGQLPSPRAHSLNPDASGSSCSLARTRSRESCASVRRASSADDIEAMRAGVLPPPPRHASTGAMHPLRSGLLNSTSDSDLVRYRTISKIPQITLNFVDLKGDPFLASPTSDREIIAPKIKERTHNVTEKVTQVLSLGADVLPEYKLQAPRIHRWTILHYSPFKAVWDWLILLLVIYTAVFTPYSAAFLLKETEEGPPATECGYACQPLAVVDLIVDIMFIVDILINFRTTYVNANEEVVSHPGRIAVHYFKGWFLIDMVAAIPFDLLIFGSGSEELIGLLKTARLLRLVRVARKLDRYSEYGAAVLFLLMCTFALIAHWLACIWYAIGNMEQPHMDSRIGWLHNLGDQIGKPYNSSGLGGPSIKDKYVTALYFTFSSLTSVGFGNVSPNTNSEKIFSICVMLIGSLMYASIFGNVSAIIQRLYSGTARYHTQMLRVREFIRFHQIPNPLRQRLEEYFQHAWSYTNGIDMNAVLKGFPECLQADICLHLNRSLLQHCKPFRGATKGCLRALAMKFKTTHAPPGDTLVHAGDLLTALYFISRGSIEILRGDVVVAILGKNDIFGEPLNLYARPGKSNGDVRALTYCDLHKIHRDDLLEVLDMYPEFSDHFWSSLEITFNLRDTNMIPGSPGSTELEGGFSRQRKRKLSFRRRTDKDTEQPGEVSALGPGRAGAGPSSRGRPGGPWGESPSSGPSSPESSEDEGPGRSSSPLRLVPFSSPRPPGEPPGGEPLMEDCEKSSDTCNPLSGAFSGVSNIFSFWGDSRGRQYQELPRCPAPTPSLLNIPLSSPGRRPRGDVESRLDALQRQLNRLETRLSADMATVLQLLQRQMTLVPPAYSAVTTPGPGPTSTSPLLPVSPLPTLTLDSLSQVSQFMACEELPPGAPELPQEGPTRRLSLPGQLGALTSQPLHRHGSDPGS
row,Compound,"hERG current change (%, negative = inhibition) at 10uM [%]"
1,CCn1nc(C(=O)OCC(=O)NC(C)C)c2ccccc2c1=O,8.88
2,CC(=O)c1ccc(N2CCN(C(=O)COc3ccccc3F)CC2)c(F)c1,-39.7
3,Cc1sc(NC(=O)CSc2nc(N)n(CC(=O)c3ccccc3)n2)c(C#N)c1C,2.65
4,COc1cccc(C(=O)OCn2nnc3ccccc3c2=O)c1OC,5.98
5,CCn1ccc(C(=O)Nc2ccccc2Cl)n1,-2.33
6,Cc1oc(-c2ccccc2F)nc1CS(=O)CC(=O)NCc1ccc(Cl)cc1 (stereo not shown),-25.6
7,O=C(NCCN1CCOCC1)c1cnn2c(-c3ccccc3)cc(-c3ccccc3)nc12,-72.5
8,COc1cccc(NC(=O)CSc2nnc(-c3ccoc3C)n2C)c1,4.35
9,O=C(CNC(=O)c1nc[nH]c1C(=O)N1CCN(c2ccccc2)CC1)OCc1ccccc1,-16.5
10,O=C(O)c1cccc(CSc2nnc(-c3ccco3)o2)c1,10.1
11,COc1cccc(CNC(=O)C2CCN(S(=O)(=O)c3ccc(-n4cnnn4)cc3)CC2)c1,-57.3
12,Cc1nc(SCCC(C)C)c([N+](=O)[O-])[nH]1,17.6
13,O=C(NC(=O)c1ccccc1)Nc1ccc(Cl)cn1,14.4
14,CCOc1ccccc1N(CC(=O)Nc1ccc(S(=O)(=O)N2CCCC2)cc1)S(C)(=O)=O,-19.6
15,CC1CCC(NC(=O)c2ccc(CNc3c(NC4CCCCC4)c(=O)c3=O)cc2)CC1 (stereo not shown),6.77
16,COc1cc(CN2CCC(Oc3cc(C(=O)NC4CC4)ccc3OC)CC2)cc(OC)c1,-72.8
17,Cc1noc(C)c1COC(=O)Cn1c(C)nc2ccccc21,2.93
18,O=C1C=C(c2ccc3c(c2)OCO3)C[C@@H](c2ccc(F)cc2)C1,23.8
19,Cc1cccc(OCC(=O)Nc2ccccc2C(F)(F)F)c1,-2.17
20,O=C(/C=C/c1ccccc1)N(Cc1ccc(Cl)cc1)C1CCS(=O)(=O)C1 (stereo not shown),-30.6
21,Cc1cc(=O)c(C(=O)Nc2cccc(N3CCCC3=O)c2)nn1-c1ccccc1Cl,-6.49
22,NC(=O)C1=C[C@@H](C2CCCCC2)C[C@@H](OCc2ccc(CO)cc2)O1,-10.4
23,Cl.NCCCCCc1nnc(SCc2ccc(Cl)cc2Cl)o1,-26.1
24,COc1cc(-c2noc(C)c2-c2ccc3[nH]ccc3c2)cc(OC)c1OC,8.02
25,COc1ccnc(CN(C)C(=O)C2CCC(=O)N(Cc3cccc(C(F)(F)F)c3)C2)c1 (stereo not shown),-18.6
26,CC(C)CC(=O)Nc1cccc(NC(=O)c2ccccc2Cl)c1,-22.7
27,Cc1ccccc1Cn1cc(NC(=O)c2noc(C(C)C)c2[N+](=O)[O-])cn1,-3.3
28,COC(=O)c1ccc(NC(=O)c2ccc(N(C)S(C)(=O)=O)cc2)cc1,-1.19

row,Compound,"hERG current change (%, negative = inhibition) at 10uM [%]"
1,Cn1cccc1C(=O)NC(=O)COC(=O)c1cc(S(=O)(=O)N2CCCCC2)ccc1Cl,12.1
2,O=C(N/N=C/c1cccc2cccnc12)[C@H]1C[C@@H]1c1ccccc1,-11.2
3,Cc1ccc(-c2csnn2)cc1,6.13
4,Cc1ccc(C(=O)Nc2nc(=O)[nH]s2)cc1,9.01
5,N#Cc1ccc(N2CCN(C(=O)c3cccc(F)c3)CC2)c(F)c1,-66.8
6,Cc1ccc(/C(O)=C2\C(=O)C(=O)N(CC(C)O)C2c2cccc(F)c2)cc1 (stereo not shown),28.4
7,CCCCN(CCCC)Cc1cc2ccccc2c2c1COC2,-54.6
8,COc1ccc(CCNC(=O)C/C(C)=N/NC(=O)COc2ccc(C)cc2Br)cc1OC,-44.2
9,Cc1cccc(C)c1NC(=O)C/C(N)=N/O,3.42
10,COc1cc(OC)c(S(=O)(=O)N2CCN(C(=O)c3ccccc3F)CC2)cc1NC(C)=O,4.09
11,COc1ccc(OC)c(NC(=O)c2ccc(CN3CCc4ccccc4C3)cc2)c1,3.78
12,CCOc1ccccc1N1CCN(C(=O)c2c(CC)noc2C)CC1,6.82
13,CCOc1ccc(S(=O)(=O)N2CCN(c3ccccn3)CC2)cc1,11.1
14,Cn1c(CO)cnc1SCc1ccc(F)cc1,18.2
15,Cc1ccc(-c2noc(Cn3nc(C(=O)O)c4ccccc4c3=O)n2)cc1,23.3
16,O=C(O)CCCC(=O)Nc1ccccc1C(=O)O,-5.62
17,COc1cc(CNc2ncn[nH]2)ccc1OCc1cccc(C)c1,-9.34
18,O=C(Nc1ccccc1)C1=C[C@@H](c2ccc(C(F)(F)F)cc2)C[C@@H](OCc2ccc(CO)cc2)O1,6.5
19,NC(=O)CC(NC(=O)Cc1ccc(Br)cc1)c1ccc(NCCc2ccc(F)cc2)c([N+](=O)[O-])c1 (stereo not shown),1.23
20,CCOc1cc(-c2nc3cc(C)ccn3c2NCC2CCCO2)ccc1O (stereo not shown),-72.2
21,O=C(NCc1ccccc1)C(c1ccccc1F)N(CC1CCCO1)C(=O)c1ccccn1 (stereo not shown),7.17
22,O=C(N/N=C/c1ccc(O)cc1)c1[nH]c2ccc(Br)cc2c1-c1ccccc1,25.8
23,CC(C)[C@H](NS(=O)(=O)c1ccc(Cl)cc1)C(=O)OCC(=O)NCCN1C(=O)CSC1=O,7.5
24,CC(=O)c1sc2nsc(SCCN3CCOCC3)c2c1N,-0.389
25,COc1ccc(O)c(/C=N/NC(=O)CCC(=O)Nc2cccc(C)c2)c1,-14.9
26,Cc1ccc(NC(=O)COc2cccc3ccc(C)nc23)c(Br)c1,2.27
27,Nc1[nH]n2c(=O)c3c(nc2c1N=Nc1ccccc1)CCCC3,-54.3

# Source: article PMC4336329 (PLoS ONE, 2015)
